Here are results for 31 compounds from PubChem BioAssay AID1745853 (National Center for Advancing Translational Sciences (NCATS), 2022).

This is one part of the list. Shown are side measurements of this screen, not its main read-out; they come without a call.

What all share (experiment): Primary Screen for Target Class Profiling of Small Molecule Inhibitors of Methyltransferases
Assay [1] deals with Glycine N-methyltransferase (Homo sapiens) (UniProt Q14749). The note with it: purified enzyme, MTase-Glo SAH luminescence; measured here: GNMT inhibition; at 40 µM; stronger effect = lower value. An outline of the steps:
(§1)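 Each enzyme was assayed with SAM and its substrate. SAH formation detected by MTase-Glo luminescence; single-point 40 uM screen[…].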

The target in assay [2] is Guanidinoacetate N-methyltransferase (Homo sapiens) (UniProt Q14353). The following applies: purified enzyme, MTase-Glo SAH luminescence; measured here: GAMT inhibition; at 40 µM; stronger effect = lower value. An outline of the steps: as §1
Assay [3] concerns the target Histamine N-methyltransferase (Homo sapiens) (UniProt P50135). The note with it: purified enzyme, MTase-Glo SAH luminescence; measured here: HNMT inhibition; at 40 µM; stronger effect = lower value. An outline of the steps:
as §1

In assay [4] the target is Nicotinamide N-methyltransferase (Homo sapiens) (UniProt P40261). The following applies: purified enzyme, MTase-Glo SAH luminescence; measured here: NNMT inhibition; at 40 µM; stronger effect = lower value. An outline of the steps: as §1
Assay [5] has as its target Phenylethanolamine N-methyltransferase (Homo sapiens) (UniProt P11086). The note with it: purified enzyme, MTase-Glo SAH luminescence; measured here: PNMT inhibition; at 40 µM; stronger effect = lower value. An outline of the steps: as §1
% is scaled to controls: 0 for no effect and ±100 for the full control effect.

For the compound `CC(C)(C)NC[C@H](O)c1ccc(O)cc1Cl`, the activity change, negative = inhibition is -7.72% in assay [1]; 5.97% in assay [2]; 4.39% in assay [3]; -9.26% in assay [4]; 0.157% in assay [5].
Consider `COc1cccc(NC(=O)N2Cc3ccccc3-n3cccc3C2c2ccc(C)cc2)c1` (configuration not stated), for which the activity change, negative = inhibition in assay [1] was 3.75%; in assay [2], 3.33%; in assay [3], -3.84%; in assay [4], -4.88%; in assay [5] it was -0.148%.
The corresponding values for `CN1C[C@@H]2CN(c3ccc(-c4ccccc4)nn3)C[C@@H]2C1` are -8.49%, 0.944%, -3.54%, -22.9% and -5.63%.
Regarding `COc1ccc(C2c3cccn3-c3ccccc3CN2C(=O)Nc2cccc(Cl)c2)cc1` (configuration not stated), the activity change, negative = inhibition turned out to be 9.94% in assay [1]; 3.73% in assay [2]; 3.41% in assay [3]; 1.28% in assay [4]; 7.22% in assay [5].
The like results for `Cc1ccc(NC(=O)N2Cc3ccccc3-n3cccc3C2C)cc1` (configuration not stated) were, in that order, 10.6%, 1.58%, 9.25%, 5.25% and 7.68%.
Consider `COc1ccc(NC(=O)N2Cc3ccccc3-n3cccc3C2C)c(OC)c1` (configuration not stated), for which the activity change, negative = inhibition in assay [1] stood at 11.4%; in assay [2] it was 2.55%; in assay [3] it was 6.3%; in assay [4] it was 4.29%; in assay [5], 8.34%.
For the compound `CNC(=O)c1cc(C#N)cc(C)c1NC(=O)c1cc(Br)nn1-c1ncccc1Cl`, the activity change, negative = inhibition in assay [1] is -2.5%; in assay [2], 5.24%; in assay [3], 1.04%; in assay [4], -19.5%; in assay [5], -7.49%.
With `CCOC(=O)c1ccc(NC(=O)N2Cc3ccccc3-n3cccc3C2c2cccc(Cl)c2)cc1` (configuration not stated), the activity change, negative = inhibition in assay [1] was 8.23%; in assay [2], 0%; in assay [3], -1.86%; in assay [4] it was 4.75%; in assay [5] it was -3.22%.
The corresponding values for `O=C(Nc1ccc(Cl)cc1)N1Cc2ccccc2-n2cccc2C1c1cccs1` (configuration not stated) are 11.5%, 0%, 5.19%, 8.16% and 9.79%.
The like results for `CC1c2cccn2-c2ccccc2CN1C(=O)Nc1ccccc1C(F)(F)F` (configuration not stated) were, in that order, 5.66%, 1.68%, 0.617%, 1.52% and 4.31%.
For `CCOc1ccc(C2c3cccn3-c3ccccc3CN2C(=O)Nc2ccc(C)cc2)cc1` (configuration not stated), the activity change, negative = inhibition in assay [1] is -2.61%; in assay [2], 7.2%; in assay [3] it was 8.21%; in assay [4], 6.58%; in assay [5] it was 3.6%.
As for `COCC(C(=O)OC1CC2CCC(C1)N2C)c1ccccc1` (configuration not stated), the activity change, negative = inhibition in assay [1] is 4.98%; in assay [2], 9.66%; in assay [3] it was 8.72%; in assay [4], -3.92%; in assay [5], 4.95%.
The corresponding values for `Cc1cccc(C2c3cccn3-c3ccccc3CN2C(=O)Nc2ccc(C)c(C)c2)c1` (configuration not stated) are 3.99%, 0.353%, -6.12%, -5.29% and -0.011%.
The like results for `CC(C)=C1CC[C@]23CO[C@H](C2)[C@@](O)(C(=O)O)CCC13` (some centres not stated) were, in that order, -0.508%, -4.83%, 4.51%, -15.9% and 0.727%.
The like results for `CCc1ccc(C2c3cccn3-c3ccccc3CN2C(=O)NCc2ccc(C)cc2)cc1` (configuration not stated) were, in that order, 6.63%, 0.862%, 0.292%, -2.09% and 1%.
With `COc1ccc2c(c1)C13CCCCC1C(C2)N(C)CC3` (configuration not stated), the activity change, negative = inhibition in assay [1] is 7.43%; in assay [2] it was 14.1%; in assay [3], -33.9%; in assay [4], -7.25%; in assay [5], 3.14%.
The corresponding values for `CCOC(=O)c1ccc(NC(=O)N2Cc3ccccc3-n3cccc3C2c2ccccc2Cl)cc1` (configuration not stated) are 5.8%, 4.61%, -2%, -0.266% and 3.01%.
Take `CC1CCCC(=O)CCC/C=C/c2cc(O)cc(O)c2C(=O)O1` (configuration not stated): the activity change, negative = inhibition is -73.3% in assay [1] and -75.7% in assay [3].
In the case of `Cc1ccc(C2c3cccn3-c3ccccc3CN2C(=O)Nc2cccc(Cl)c2)cc1` (configuration not stated), the activity change, negative = inhibition is 2.58% in assay [1]; 2% in assay [2]; -8.35% in assay [3]; -5.67% in assay [4]; -3.51% in assay [5].
For `CCC1c2cccn2-c2ccccc2CN1C(=O)Nc1ccc(C)c(F)c1` (configuration not stated), the activity change, negative = inhibition in assay [1] was -0.567%; in assay [2], 4.58%; in assay [3] it was -0.928%; in assay [4], 1.25%; in assay [5], 3.49%.
With `COc1cc2c(cc1Oc1ccccc1)NC(=O)C21CCN(CC2CC2)CC1`, the activity change, negative = inhibition is -4.6% in assay [1]; -5.75% in assay [2]; -30.6% in assay [3]; -10.7% in assay [4]; -3.04% in assay [5].
As for `CC(C)C1c2cccn2-c2ccccc2CN1C(=O)Nc1ccc(Cl)cc1` (configuration not stated), the activity change, negative = inhibition is -4.87% in assay [1]; 0% in assay [2]; 1.86% in assay [3]; 3.64% in assay [4]; 2.1% in assay [5].
The like results for `O=C(NCCc1ccccc1)N1Cc2ccccc2-n2cccc2C1c1cc(F)cc(F)c1` (configuration not stated) were, in that order, 13.2%, 0.391%, 7.88%, 7.68% and 11.5%.
Regarding `CC1=NOC2(CCN(Cc3cc(C)on3)C2)C1` (configuration not stated), the activity change, negative = inhibition is -4.65% in assay [1]; -2.63% in assay [2]; -1.58% in assay [3]; -5.33% in assay [4]; 7.83% in assay [5].
As for `Cc1cccc(NC(=O)N2Cc3ccccc3-n3cccc3C2c2ccccc2)c1` (configuration not stated), the activity change, negative = inhibition is 7.1% in assay [1]; 0% in assay [2]; 7.39% in assay [3]; 8.4% in assay [4]; 5.05% in assay [5].
The corresponding values for `CCn1cc(CN2CCN(C(=O)COc3ccccc3)CC2)ccc1=O` are -11.1%, -5.27%, -1.02%, -1.08% and -14%.
`O=c1[nH]c2ccccc2n1CCCN1CCC(n2c(=O)[nH]c3cc(Cl)ccc32)CC1`: the activity change, negative = inhibition in assay [1] was -11.3%; in assay [2], 13.9%; in assay [3], -0.042%; in assay [4], -10.7%; in assay [5] it was 5.67%.
In the case of `C[N+](C)(C)CC(=O)O`, the activity change, negative = inhibition in assay [1] is 2.75%; in assay [2], 8.48%; in assay [3], 8.9%; in assay [4] it was -7.75%; in assay [5], -4.02%.
The like results for `COc1ccc(NC(=O)N2Cc3ccccc3-n3cccc3C2c2ccccc2Cl)cc1OC` (configuration not stated) were, in that order, 2.08%, 0%, -1.34%, 0.307% and 3.21%.
The corresponding values for `COc1ccc(CCNCc2ccc(OC)c3ccccc23)cc1` are 4.39%, 11.6%, -10.1%, -43% and -3.64%.
For `CCC1c2cccn2-c2ccccc2CN1C(=O)Nc1ccc(Cl)cc1` (configuration not stated), the activity change, negative = inhibition in assay [1] turned out to be 2.11%; in assay [2] it was 0.356%; in assay [3], 3.81%; in assay [4], 2.21%; in assay [5] it was 5.5%.
